Molecules are shown by their SMILES. Hit rate of the full screen: of about 310,000 compounds, about 14,000 (4.5%) showed an effect of 50% or more. Effects have a minus sign here. The list shows a part of the results.
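Note: peak tail current of the secondary pulse compared with the same well before compound.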

Sequence of human ether-à-go-go-related gene (hERG) potassium channel (Q12809 whole entry, looked up): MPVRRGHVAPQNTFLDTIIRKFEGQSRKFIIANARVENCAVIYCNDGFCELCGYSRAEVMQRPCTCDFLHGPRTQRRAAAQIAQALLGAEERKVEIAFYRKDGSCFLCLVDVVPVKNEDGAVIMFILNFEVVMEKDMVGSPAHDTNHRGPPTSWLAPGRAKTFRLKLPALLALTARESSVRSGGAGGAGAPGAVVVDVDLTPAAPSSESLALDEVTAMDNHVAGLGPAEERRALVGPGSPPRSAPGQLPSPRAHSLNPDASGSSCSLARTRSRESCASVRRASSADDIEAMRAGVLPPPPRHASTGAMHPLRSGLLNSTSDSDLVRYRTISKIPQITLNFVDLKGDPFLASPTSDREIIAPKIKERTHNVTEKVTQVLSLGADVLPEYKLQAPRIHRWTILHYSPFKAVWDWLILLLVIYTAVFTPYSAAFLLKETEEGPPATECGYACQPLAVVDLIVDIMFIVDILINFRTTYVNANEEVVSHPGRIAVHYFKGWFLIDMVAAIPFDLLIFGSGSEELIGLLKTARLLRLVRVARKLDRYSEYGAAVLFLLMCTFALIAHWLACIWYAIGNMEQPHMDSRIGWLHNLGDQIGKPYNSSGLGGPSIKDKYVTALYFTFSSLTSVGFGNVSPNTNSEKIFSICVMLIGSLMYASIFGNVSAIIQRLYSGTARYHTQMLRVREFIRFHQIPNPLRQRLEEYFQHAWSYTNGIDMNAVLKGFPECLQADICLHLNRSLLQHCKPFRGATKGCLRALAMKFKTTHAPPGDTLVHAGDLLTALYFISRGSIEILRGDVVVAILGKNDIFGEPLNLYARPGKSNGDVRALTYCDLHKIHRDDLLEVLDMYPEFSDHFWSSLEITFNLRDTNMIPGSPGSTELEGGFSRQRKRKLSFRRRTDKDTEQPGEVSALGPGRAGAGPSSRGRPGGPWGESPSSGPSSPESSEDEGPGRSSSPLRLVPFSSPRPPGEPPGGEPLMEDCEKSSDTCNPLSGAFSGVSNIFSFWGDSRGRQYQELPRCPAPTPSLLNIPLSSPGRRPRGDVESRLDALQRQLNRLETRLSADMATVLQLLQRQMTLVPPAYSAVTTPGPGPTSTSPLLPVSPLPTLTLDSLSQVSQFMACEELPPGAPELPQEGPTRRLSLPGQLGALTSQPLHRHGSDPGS

The assay concerns the target human ether-à-go-go-related gene (hERG) potassium channel (human, UniProt Q12809). The experiment in a line: primary screen, population patch clamp on CHO cells stably expressing hERG.
Regarding `COc1ccc(/C(N)=N/OC(=O)Cc2ccccc2)cc1`, the “hERG current change (%, negative = inhibition) at 10uM” value worked out at 5.67%.

For the compound `COC(=O)c1cc(=O)nc2scc(C)n12`, the “hERG current change (%, negative = inhibition) at 10uM” value is -23.1%.

For the compound `CNC(=O)c1cc2cc(OC)ccc2n1CCN(C)C`, the “hERG current change (%, negative = inhibition) at 10uM” value was -11.6%.

Consider `COc1ccc(CNC(=O)C2CCN(S(C)(=O)=O)CC2)c(OC)c1`, for which the “hERG current change (%, negative = inhibition) at 10uM” value worked out at 4.8%.

Consider `CCOc1ccc(S(=O)(=O)N2CCCC(C(=O)NCc3cccnc3)C2)cc1Cl` (stereo not drawn), for which the “hERG current change (%, negative = inhibition) at 10uM” value is recorded as -30.1%.

Take `COCCNc1oc(/C=C/c2ccccc2)nc1C#N`: the “hERG current change (%, negative = inhibition) at 10uM” value was found to be 1.87%.

In the case of `CCCCN(CC)CCCNC(=O)c1ccc2c(c1)N(CC)C(=O)c1ccccc1S2(=O)=O`, the “hERG current change (%, negative = inhibition) at 10uM” value is given as -16.6%.

On to `CC(C)C(=O)c1cn(CC(=O)NCc2ccco2)c2ccccc12`, for which the “hERG current change (%, negative = inhibition) at 10uM” value was found to be 11.5%.

In the case of `COc1ccccc1NC(=O)CSc1ccc2nnc(CCNC(=O)c3ccccc3)n2n1`, the “hERG current change (%, negative = inhibition) at 10uM” value is 12.9%.

As to `CNC(=O)COc1ccc(S(=O)(=O)Nc2ccc(OC)cc2)cc1`, the “hERG current change (%, negative = inhibition) at 10uM” value stood at 14.1%.

For the compound `O=C(Nc1ccccc1-c1nnn(CC(=O)N2CCCc3ccccc32)n1)c1cccc(Cl)c1`, the “hERG current change (%, negative = inhibition) at 10uM” value was determined as 3.04%.

As to `O=Cc1c(NCCN2CCOCC2)c2ccccc2[nH]c1=O`, the “hERG current change (%, negative = inhibition) at 10uM” value is given as 28.8%.

In the case of `CC1CCCC(C)N1S(=O)(=O)c1ccc(NC(=O)CNCC2CCCO2)cc1.O=C(O)C(=O)O` (stereo not drawn), the “hERG current change (%, negative = inhibition) at 10uM” value is reported as -18%.

Regarding `COc1ccc([C@@H]2CC=C(C(=O)O)[C@H](c3cccc(Cl)c3)N2S(=O)(=O)c2ccccc2C)cc1`, the “hERG current change (%, negative = inhibition) at 10uM” value is reported as 24.4%.

Consider `Cc1ccc2[nH]c(=O)c(CN(C)S(=O)(=O)c3cccc4nonc34)cc2c1`, for which the “hERG current change (%, negative = inhibition) at 10uM” value worked out at 12.7%.

As for `COc1cccc(CSc2nnc(-c3ccncc3)n2N)c1`, the “hERG current change (%, negative = inhibition) at 10uM” value worked out at 7.77%.

For the compound `CC(Cc1c[nH]c2ccccc12)C(=O)NCc1ccco1` (stereo not drawn), the “hERG current change (%, negative = inhibition) at 10uM” value was 14%.

Take `Cc1cc(C(F)(F)F)n2nc(C)c(-c3ccc(Cl)cc3)c2n1`: the “hERG current change (%, negative = inhibition) at 10uM” value came to 11.9%.

Regarding `CCOC(=O)C1CCN(S(=O)(=O)c2ccc(Cl)cc2)CC1`, the “hERG current change (%, negative = inhibition) at 10uM” value is recorded as -40.8%.

As to `CCCS(=O)(=O)n1nc(-c2ccc(C)cc2)cc1N`, the “hERG current change (%, negative = inhibition) at 10uM” value came out at 7.45%.

With `Cc1ccc(C)c2[nH]c(=O)c(CN(CC3CCCO3)C(=S)NCc3ccco3)cc12` (stereo not drawn), the “hERG current change (%, negative = inhibition) at 10uM” value is recorded as -24.3%.

Take `Cn1cc([C@@H]2C[C@H]3CN(Cc4cccc(Cl)c4)C(=O)[C@]34CCCN24)c(-c2ccccc2)n1`: the “hERG current change (%, negative = inhibition) at 10uM” value is reported as -63.3%.

On to `Cc1ccc(NC(=O)OCCN2CCN(Cc3ccccc3)CCC2=O)cc1`, for which the “hERG current change (%, negative = inhibition) at 10uM” value is listed as -11.5%.

As for `COc1cccc(NC(=O)c2cccc(N3C(=O)C4CCC(C)CC4C3=O)c2)c1` (stereo not drawn), the “hERG current change (%, negative = inhibition) at 10uM” value was determined as 4.01%.

For the origin of these results see paper PMC4336329 (PLoS ONE, 2015).
